From the supplement of paper PMC4967469
Lines with a small IC50 respond at low doses; fits outside the tested doses are given as limits. AUC sums up the same curve from the lowest dose to the 256-fold higher top dose; the more sensitive the line, the further below 1. Any top dose called inferred was derived from the fitted curves, not read from the paper.

Compound: COc1ncc(-c2ccc3nccc(-c4ccnnc4)c3c2)cc1NS(=O)(=O)c1ccc(F)cc1F [GSK2126458]
Assay: Viability of human cancer cell lines after 72 h of drug (GDSC screen)
Conditions: top dose inferred
Description: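 Human cancer cell lines in 384-well plates, medium with 10% serum, drug for 72 h over a 256-fold dose range (nine 2-fold or five 4-fold steps up to the top dose). Adherent lines were fixed and stained with the nucleic acid dye Syto60, suspension lines read with resazurin; signal relative to control wells, capped at 0 and 100%. One two-parameter sigmoid per drug and line, fitted in a mixed model over all curves with the slope shared within a line.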

| Cell Line | AUC | IC50 [nM] |
| --- | --- | --- |
| SBC-5 (small cell lung carcinoma, adherent, top dose 0.128 µM) | 0.965 | > 128 |
| SCC-3 (B-cell lymphoma, suspension, top dose 0.128 µM) | 0.898 | 81.5 |
| SCC-4 (head and neck, adherent, top dose 0.128 µM) | 0.857 | > 128 |
| SCC-9 (head and neck, adherent, top dose 0.128 µM) | 0.392 | 3.7 |
| SCC-15 (head and neck, adherent, top dose 0.128 µM) | 0.587 | 15 |
| SCC-25 (head and neck, adherent, top dose 0.128 µM) | 0.611 | 16.8 |
| SCH (stomach, adherent, top dose 0.128 µM) | 0.969 | > 128 |
| SF126 (glioma, adherent, top dose 0.128 µM) | 0.693 | 28.8 |
| SF268 (glioma, adherent, top dose 0.128 µM) | 0.743 | 42.4 |
| SF295 (glioma, adherent, top dose 0.128 µM) | 0.627 | 18.4 |
| SF539 (glioma, adherent, top dose 0.128 µM) | 0.683 | 24.5 |
| SH-4 (melanoma, adherent, top dose 0.128 µM) | 0.781 | 88.3 |
| SHP-77 (small cell lung carcinoma, semi-adherent, top dose 0.128 µM) | 0.844 | 77.5 |
| SIG-M5 (acute myeloid leukaemia, suspension, top dose 0.128 µM) | 0.124 | 0.851 |
| SIMA (neuroblastoma, adherent, top dose 0.128 µM) | 0.859 | > 128 |
| SISO (cervix, adherent, top dose 0.128 µM) | 0.839 | 82.5 |
| SJRH30 (rhabdomyosarcoma, adherent, top dose 0.128 µM) | 0.649 | 21 |
| SJSA-1 (bone, adherent, top dose 0.128 µM) | 0.633 | 19.6 |
| SK-CO-1 (large intestine, adherent, top dose 0.128 µM) | 0.925 | > 128 |
| SK-ES-1 (Ewing sarcoma, semi-adherent, top dose 0.128 µM) | 0.523 | 9.28 |
| SK-GT-4 (oesophagus, adherent, top dose 0.128 µM) | 0.625 | 19.3 |
| SK-HEP-1 (liver, adherent, top dose 0.128 µM) | 0.947 | > 128 |
| SK-LMS-1 (soft tissue, adherent, top dose 0.128 µM) | 0.597 | 14.6 |
| SK-LU-1 (lung adenocarcinoma, adherent, top dose 0.128 µM) | 0.873 | > 128 |
| SK-MEL-1 (melanoma, suspension, top dose 0.128 µM) | 0.881 | 103 |
| SK-MEL-2 (melanoma, adherent, top dose 0.128 µM) | 0.622 | 17.5 |
| SK-MEL-3 (melanoma, adherent, top dose 0.128 µM) | 0.685 | 28.7 |

| Cell Line | AUC | IC50 [nM] |
| --- | --- | --- |
| SK-MEL-5 (melanoma, adherent, top dose 0.128 µM) | 0.814 | 89.8 |
| SK-MEL-24 (melanoma, adherent, top dose 0.128 µM) | 0.983 | > 128 |
| SK-MEL-28 (melanoma, adherent, top dose 0.128 µM) | 0.877 | 124 |
| SK-MEL-30 (melanoma, adherent, top dose 0.128 µM) | 0.722 | 35.5 |
| SK-MES-1 (lung squamous cell carcinoma, adherent, top dose 0.128 µM) | 0.735 | 40 |
| SK-MG-1 (glioma, adherent, top dose 0.128 µM) | 0.987 | > 128 |
| SK-MM-2 (myeloma, suspension, top dose 0.128 µM) | 0.281 | 1.86 |
| SK-N-AS (neuroblastoma, adherent, top dose 0.128 µM) | 0.779 | 60.8 |
| SK-N-DZ (neuroblastoma, adherent, top dose 0.128 µM) | 0.986 | > 128 |
| SK-N-FI (neuroblastoma, adherent, top dose 0.128 µM) | 0.911 | > 128 |
| SK-N-SH (neuroblastoma, adherent, top dose 0.128 µM) | 0.827 | 77.5 |
| SK-OV-3 (ovary, adherent, top dose 0.128 µM) | 0.513 | 8.75 |
| SK-PN-DW (Ewing sarcoma, adherent, top dose 0.128 µM) | 0.746 | 41.8 |
| SK-UT-1 (soft tissue, adherent, top dose 0.128 µM) | 0.877 | 109 |
| SKG-IIIa (cervix, adherent, top dose 0.128 µM) | 0.972 | > 128 |
| SKN (uterus, adherent, top dose 0.128 µM) | 0.88 | > 128 |
| SKN-3 (head and neck, adherent, top dose 0.128 µM) | 0.874 | > 128 |
| SLVL (B-cell lymphoma, suspension, top dose 0.128 µM) | 0.59 | 14.3 |
| SN12C (kidney, adherent, top dose 0.128 µM) | 0.941 | > 128 |
| SNB75 (glioma, adherent, top dose 0.128 µM) | 0.768 | 71 |
| SNG-M (endometrium, adherent, top dose 0.128 µM) | 0.57 | 12.4 |
| SNU-61 (large intestine, adherent, top dose 0.128 µM) | 0.824 | 110 |
| SNU-81 (large intestine, adherent, top dose 0.128 µM) | 0.568 | 13 |
| SNU-175 (large intestine, suspension, top dose 0.128 µM) | 0.773 | 47 |
| SNU-182 (liver, adherent, top dose 0.128 µM) | 0.735 | 38.8 |
| SNU-387 (liver, adherent, top dose 0.128 µM) | 0.672 | 26 |
| SNU-398 (liver, adherent, top dose 0.128 µM) | 0.84 | 93.3 |

| Cell Line | AUC | IC50 [nM] |
| --- | --- | --- |
| SNU-407 (large intestine, adherent, top dose 0.128 µM) | 0.631 | 19.5 |
| SNU-423 (liver, adherent, top dose 0.128 µM) | 0.569 | 12.7 |
| SNU-449 (liver, adherent, top dose 0.128 µM) | 0.733 | 39.8 |
| SNU-475 (liver, adherent, top dose 0.128 µM) | 0.928 | > 128 |
| SNU-1040 (large intestine, adherent, top dose 0.128 µM) | 0.728 | 45.3 |
| SNU-C1 (large intestine, suspension, top dose 1.024 µM) | 0.822 | 1020 |
| SNU-C2B (large intestine, adherent, top dose 1.024 µM) | 0.785 | 596 |
| SNU-C5 (large intestine, adherent, top dose 0.128 µM) | 0.822 | 85.2 |
| SR (lymphoid neoplasm, suspension, top dose 0.128 µM) | 0.43 | 5.24 |
| ST486 (Burkitt lymphoma, suspension, top dose 0.128 µM) | 0.501 | 8.05 |
| SU8686 (pancreas, adherent, top dose 0.128 µM) | 0.844 | 108 |
| SU-DHL-1 (anaplastic large cell lymphoma, suspension, top dose 0.128 µM) | 0.509 | 8.39 |
| SU-DHL-4 (B-cell lymphoma, suspension, top dose 0.128 µM) | 0.612 | 14.9 |
| SU-DHL-5 (B-cell lymphoma, suspension, top dose 0.128 µM) | 0.27 | 2.17 |
| SU-DHL-6 (B-cell lymphoma, suspension, top dose 0.128 µM) | 0.049 | < 0.5 |
| SU-DHL-8 (B-cell lymphoma, suspension, top dose 0.128 µM) | 0.464 | 6.42 |
| SU-DHL-10 (B-cell lymphoma, suspension, top dose 0.128 µM) | 0.343 | 3.35 |
| SU-DHL-16 (B-cell lymphoma, suspension, top dose 0.128 µM) | 0.037 | < 0.5 |
| SUIT-2 (pancreas, adherent, top dose 0.128 µM) | 0.483 | 7.2 |
| SUP-B15 (lymphoblastic leukaemia, suspension, top dose 0.128 µM) | 0.371 | 3.59 |
| SUP-HD1 (Hodgkin lymphoma, suspension, top dose 0.128 µM) | 0.473 | 6.78 |
| SUP-M2 (anaplastic large cell lymphoma, suspension, top dose 0.128 µM) | 0.234 | 1.73 |
| SUP-T1 (T-cell lymphoblastic leukaemia, suspension, top dose 1.024 µM) | 0.578 | 102 |
| SW13 (adrenal gland, adherent, top dose 0.128 µM) | 0.971 | > 128 |
| SW48 (large intestine, adherent, top dose 1.024 µM) | 0.771 | 390 |
